The record followed here is patent US20250215105A1, “ANTI-CD39 ANTIBODY” (BrightPath Biotherapeutics Co., Ltd., priority 2022, published 2025).

One assay deals with T1, human CD39 (Homo sapiens, UniProt P49961).
T1 sequence (P49961 1-510): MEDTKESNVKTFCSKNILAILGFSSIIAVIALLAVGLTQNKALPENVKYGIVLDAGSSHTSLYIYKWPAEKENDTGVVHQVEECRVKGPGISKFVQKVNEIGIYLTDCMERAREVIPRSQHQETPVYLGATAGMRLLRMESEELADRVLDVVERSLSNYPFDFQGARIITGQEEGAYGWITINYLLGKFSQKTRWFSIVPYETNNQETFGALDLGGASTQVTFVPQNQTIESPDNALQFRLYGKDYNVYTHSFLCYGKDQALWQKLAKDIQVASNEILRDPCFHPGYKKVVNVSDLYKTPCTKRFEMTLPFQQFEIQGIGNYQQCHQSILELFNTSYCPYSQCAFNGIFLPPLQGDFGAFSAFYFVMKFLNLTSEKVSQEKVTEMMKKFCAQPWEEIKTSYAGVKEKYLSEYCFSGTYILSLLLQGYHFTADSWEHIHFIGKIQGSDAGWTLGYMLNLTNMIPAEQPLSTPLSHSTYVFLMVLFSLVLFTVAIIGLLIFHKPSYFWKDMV
The assay can be described thus: CD39 binding analysis (FCM) using human CD39-overexpressing cells. The settings on record: 293T-hCD39 or Jurkat-hCD39 cells. The procedure: 3.1 CD39 binding analysis (FCM analysis) (using human CD39) Binding to target antigen-expressing cells was analyzed by FCM analysis using human CD39-overexpressing cells. The human CD39-overexpressing cells were generated using a lentiviral vector system (OriGene, PS100069). Lentiviral particles carrying the human CD39 gene (Gene ID: 953) as the target gene together with the puromycin resistance gene were generated and used to infect HEK293T or Jurkat cells therewith. Then, the cells were cultured in the presence of puromycin. HEK293T or Jurkat cells ([…] or Jurkat-hCD39) in which the target gene was integrated into the genome and which became positive for human CD39 were collected and used for FCM analysis. Test or isotype control antibodies at a final concentration of 2 μg/mL or at the concentrations indicated in the figure were reacted with 1×10^5 cells for 15 minutes at 4° C., followed by washing twice with 0.5% BSA, 2 mM EDTA, and D-PBS. After washing, a fluorescent-labeled secondary antibody (anti-human IgG Fc, HP6017) was added, and the cells were stained at 4° C. for 15 minutes under light-shielded conditions, followed by washing twice in a similar manner. After addition of 7AAD (BioLegend, 420404), fluorescence intensity was measured using a flow cytometer (FACSVerse, BD). Antibody binding was evaluated based on the fluorescence intensity obtained.

The test system of assay [1] is human lung cancer cell line NCI-H292. Briefly: anti-tumor activity: NCI-H292 growth with stimulated PBMCs and ATP (IncuCyte). It counts as cell-based. To be noted: ATP 250 μM, antibody 10 μg/ml (FIG. 32). The protocol:
The human lung cancer cell line NCI-H292 having red fluorescent protein (RFP) was seeded on a 96-well plate and cultured overnight. The next day, after removal of the medium, IL-2 (Miltenyi, 130-097-745) at a final concentration of 30 IU as suspended in X-VIVO-15™ medium (Lonza, 04-418Q) and an anti-human CD39 antibody or isotype control antibody at a final concentration of 0.3 to 100 μg/mL were added and the mixture was incubated at 37° C. for 30 minutes. Then, PBMCs from healthy volunteers stimulated with Dynabeads™ Human T-Activator CD3/CD28 (VERITAS, DB11131) for 10 days were added at an E/T ratio of 2 and the mixture was incubated at 37° C. for 30 minutes. […] This made it possible to evaluate the anti-tumor activity of the antibody due to its ability to promote the cytotoxic activity of PBMCs.

B1: P4_h1lala: chimeric antibody with VH and Vκ of P4_sc, human IgG1-lala (Fc silent) and human light chain constant region (antibody)
heavy: QVQLKESGPSLVQPSQSLSITCTVSGFSLTNYGVHWVRQSPGKGLEWLGVILRRGSTDYNAAFMSRLSITKDNSKSQVFFKMNSLQADDTAIYYCAKTAVVAGDYFDYWGQGTTLTVSSASTKGPSVFPLAPSSKSTSGGTAALGCLVKDYFPEPVTVSWNSGALTSGVHTFPAVLQSSGLYSLSSVVTVPSSSLGTQTYICNVNHKPSNTKVDKKV[human IgG1 Fc with changes skipped]
light: DIVMTQSHKFMSTSVGDRVSVTCKASQNVGTNVAWYQQKPGQSPKALIYSASYRYSGVPDRFTGSGSGTDFTLTISNVQSEDLAEYFCQQYNSYPLTFGTGTKLEIKRTVAAPSVFIFPPSDEQLKSGTASVVCLLNNFYPREAKVQWKVDNALQSGNSQESVTEQDSKDSTYSLSSTLTLSKADYEKHKVYACEVTHQGLSSPVTKSFNRGEC
B1: the “affinity for human CD39 on the cell surface” value in the assay with human CD39 is listed as “favorable affinity”. For the same molecule, in assay [1], the “overall difference in cancer cell growth compared to isotype control” value is “large” and the “time after treatment at which a difference to the isotype control starts to appear” value was “about 20 hours”.
